In all, about 48,000 compounds went through this assay and about 120 (0.25%) were called active. Inconclusive results (about 4%) are left out. Calls follow the shape of the dose curve; as a rule, active = well fitted activation curve with a large enough effect; inconclusive = small, poorly fitted or top-dose-only effect, or another doubt; inactive = no such curve, though single readings can be large or run the other way. The list shows a part of the results.
test: Primary qHTS for Identification of Small Molecule Activators of Huntingtin-Antisense Promoter Activity; details: HEK293 HTT-AS promoter firefly luciferase reporter (activity 0% = vehicle and -100% = no light), 24 h; series mostly up to 57.5 µM; activity change, positive = activation: at the top concentration; also: nearly all actives have a fitted effect of over 55% in size
Description: Assay Provider: Russell L. Margolis M.D.
Department Neurology, Johns Hopkins University School of Medicine, Baltimore, MD
Huntington's Disease (HD) is a neurodegenerative disorder caused by a CAG repeat expansion in exon 1 of huntingtin (HTT). While there are currently no disease-modifying treatments for HD, recent efforts have focused on development of nucleotide-based therapeutics to lower HTT expression. As an alternative to siRNA or oligonucleotide methods, we hypothesized that suppression of HTT expression might be accomplished by small molecules that either (1) directly decrease HTT expression by suppressing HTT promoter activity or (2) indirectly decrease HTT expression by increasing the promoter activity of HTT-AS, the gene antisense to HTT that appears to inhibit expression of HTT.
We developed and employed a high throughput screen for modifiers of HTT and HTT-AS promoter activity using luminescent reporter HEK293 cells; of the 52,041 compounds tested, we identified 898 replicable hits. We used a rigorous stepwise approach to assess compound toxicity and the capacity of the compounds to specifically lower huntingtin protein in 5 different cell lines, including HEK293 cells, HD lymphoblastoid cells, mouse primary neurons, HD iPSCs differentiated into cortical-like neurons, and HD hESCs. We found no compounds which were able to lower huntingtin without lowering cell viability in all assays, though the potential efficacy of a few compounds at non-toxic doses could not be excluded.
SEQUENCE No. (1, 2, 3, etc.); […] (e.g., Cells, Incubation, Reagent, etc.); VALUE and DESCRIPTION.
1; Reagent; 4 uL; 2,500 Hek293 luciferase reporter cells per wells
3; Compound; 23 nL; Control inhibitor / compound library
5; Reagent; 2.5 uL; Firefly Luc reagent; Dual-Glo Luciferase Reporter Assay System (Promega)
6; Time; 10 min; room temperature incubation
7; Detection; Luminescence; FLuc
NOTES (numbers refer to sequence above)
1; High-throughput screening, measuring luminescence from a Hek293 luciferase reporter, was performed in 1,536 well white-walled tissue-culture treated plates. 2,500 cells were plated in 4 µL of Opti-MEM per well using a Multidrop Combi Reagent Dispenser (ThermoFisher).
2; Assay plates were cultured for 24 hours.
3; Control inhibitor (PTC124; final concentration of 50 uM) and compound library (at final concentrations of 460 nM - 57.5 uM) were added to the assay plate using the Kalypsis Pintool Robotic System equipped with 1536 pinheads.
4; Cells were then incubated for 24 hours at 37 degrees C prior to luminescence measurements.
5; In all cases, luminescence was measured using the Dual-Glo Luciferase Reporter Assay System (Promega) following the manufacturer's instructions.
6; Room temperature incubation.
7; Luminescence signal was obtained using the PerkinElmer ViewLux plate reader. Results were normalized to vehicle control (0% activity) and zero RLU (-100% activity).
Potency is read from the fitted curve at half-maximal effect.

Row | Compound | activity change, positive = activation | Potency
1 | CCOc1cc2[nH]c(=O)n(CCCCCC(=O)NC(C)CC)c(=O)c2cc1OCC (stereo not given) | inactive: -7.26% | –
2 | COc1ccc(N2CCN(Cc3nc(-c4ccc(C)cc4)no3)CC2)cc1 | inactive: 0.165% | –
3 | CCOC(=O)N1CCc2c(sc3c2c(=O)n(-c2ccc(CC)cc2)c(=O)n3CC(=O)Nc2ccc(C)cc2)C1 | inactive: -16.5% | –
4 | CCNc1ccc(-c2nc(-c3ccco3)no2)cc1[N+](=O)[O-] | – | active: 0.355 µM
5 | Cc1ccccc1NC(=O)c1c(NC(=O)Cc2ccccc2)sc2c1CCC2 | inactive: -22.6% | –
6 | O=C(NCCOCCn1c(=O)oc2ccccc21)Nc1ccc(Cl)cc1 | inactive: -25.9% | –
7 | CCOc1ccc(CNC(=O)c2ccc3c(c2)c(C)c(C)n3Cc2ccc(Cl)cc2)cc1 | inactive: -21.2% | –
8 | CN(C)S(=O)(=O)n1cc(/C=C(\NC(=O)c2ccccc2)C(=O)NCCCn2ccnc2)c2ccccc21 | inactive: -13.8% | –
9 | COc1ccc(N2CC(NC(=O)CCc3ccccc3)CC2=O)cc1OC (stereo not given) | inactive: -8.57% | –
10 | Cc1cc(C)c(NC(=O)c2cc(S(=O)(=O)N3CCN(c4ccccc4F)CC3)ccc2F)c(C)c1 | inactive: -29.3% | –
11 | Cc1ccc2oc(=O)n(CCCOc3ccc(Cl)cc3)c2c1 | inactive: -10.6% | –
12 | COc1ccc(-n2c3c(cc(-c4nc(-c5ccc(Cl)cc5)cs4)c2=O)C(=O)CC(C)(C)C3)cc1 | inactive: -5.22% | –
13 | Cc1ccc2scc(N3CCN(c4ccc(F)cc4)CC3)c(=O)c2c1 | inactive: -0.407% | –
14 | O=C1c2[nH]nc(-c3ccc(Br)cc3)c2C(c2cccc(O)c2)N1c1ccc(Cl)cc1 (stereo not given) | inactive: -68.6% | –
15 | COc1ccc(NC(=O)c2sc3nc4n(c(=O)c3c2C)CCC4)cc1Cl | inactive: 14.9% | –
16 | COc1ccc(C2c3c(n(C)c4ccccc34)C(=O)N2CC(=O)Nc2ccccc2F)cc1 (stereo not given) | inactive: -18.6% | –
17 | O=C(CC1N=C2c3ccccc3N=C(SCc3ccccc3F)N2C1=O)NCc1ccc2c(c1)OCO2 (stereo not given) | inactive: -1.95% | –
18 | COc1ccc(Cl)cc1NC(=O)CN(c1cccc(C)c1C)S(=O)(=O)c1ccccc1 | inactive: -30.3% | –
19 | CCOc1ccc(C(c2c(O)cc(C)n(CCOC)c2=O)N2CCC(C)CC2)cc1 (stereo not given) | inactive: -11.6% | –
20 | O=C(NCc1ccc(Cl)cc1)c1cnc2sc(N3CCCC3)nn2c1=O | inactive: -4.85% | –
21 | COc1ccc(CCNC(=O)c2ccc3c(c2)N(Cc2cccc(Cl)c2)C(=O)CS3)cc1OC | inactive: -46.9% | –
22 | COc1ccc2c(c1)sc1ncc(C(=O)NCc3cccc(Cl)c3)c(=O)n12 | inactive: -5.76% | –
23 | COc1cc(C)ccc1OCCn1c(-c2ccc(Cl)cc2)nc2ccccc2c1=O | inactive: 0.973% | –

Row | Compound | activity change, positive = activation | Potency
24 | CCc1ccc(CNC(=O)c2cc(-c3ccc(Cl)s3)nc3ccccc23)cc1 | inactive: -12.4% | –
25 | Cc1ccc(N(C)S(=O)(=O)c2nnc(NC(=O)C3CCCCC3)s2)cc1 | inactive: 6.28% | –
26 | Cc1ccc(CCNC(=O)c2ccc(CSCc3ccccc3Cl)o2)cc1 | inactive: -18% | –
27 | CCOc1ccc(NC(=O)Cn2c(=O)oc3cc(S(=O)(=O)N4CCCCCC4)ccc32)cc1 | inactive: -23.5% | –
28 | O=C(Cc1ccc(NC(=O)N2CCSc3ncccc32)cc1)NCCc1ccccc1 | inactive: -20.5% | –
29 | COc1cc(OC)c(NS(=O)(=O)c2cc(-c3cnc(C)o3)ccc2OC)cc1Cl | inactive: -23.8% | –
30 | Cc1ccc(NC(=O)CN2C(=O)CCn3nc(-c4cccn4C)cc32)cc1 | inactive: -0.0583% | –
31 | COCCCNc1nc2c(S(=O)(=O)c3ccc(C)c(C)c3)nnn2c2ccc(Cl)cc12 | inactive: -24.7% | –
32 | CCOc1ccc(OCC)c(NC(=O)CCC(=O)N2CCOc3ccccc32)c1 | inactive: -27.4% | –
33 | CSc1ncc(C(=O)Nc2ccc(F)cc2F)c(-c2ccccc2)n1 | inactive: -9.79% | –
34 | CCCC1=Nc2cc(C(=O)NCCc3ccc(OC)cc3OC)ccc2Sc2ccccc21 | inactive: -50.3% | –
35 | Cc1ccc2oc(-c3cc(NC(=O)c4ccco4)ccc3Cl)nc2c1 | inactive: -8.73% | –
36 | CCN(CC)CCNC(=O)c1nn(C)c2c1CS(=O)(=O)c1ccccc1-2 | inactive: -5.98% | –
37 | CCOC(=O)c1ccc(N2C(=O)c3n[nH]c(-c4ccco4)c3C2c2ccc(O)c(OC)c2)cc1 (stereo not given) | inactive: -59.5% | –
38 | CCC(=O)N1c2ccccc2CC1C(=O)NCCc1ccc(C)cc1 (stereo not given) | inactive: -8.76% | –
39 | Cc1ccc(CNC(=O)c2nn(C)c3c2CS(=O)(=O)c2ccccc2-3)cc1 | inactive: -15.2% | –
40 | Cc1cn(C)c(CC(=O)NCc2ccccc2Cl)c1C(=O)O | inactive: -11.3% | –
41 | O=C(CSCc1nc2cccnc2n1C1CCCCC1)NCc1cccc(Cl)c1 | inactive: -23.3% | –
42 | COc1ccc(-n2nc(C(=O)N3CCN(c4cccc(C)c4C)CC3)c3c4ccccc4n(C)c3c2=O)cc1 | inactive: 0.848% | –
43 | O=C(Nc1nc2nc(-c3ccccc3)cc(=O)n2[nH]1)c1ccc(Cl)cc1 | inactive: -14.6% | –
44 | CNC(=O)COc1ccc(NC(=O)CCn2nc(-c3ccc(C)cc3)c3ccccc3c2=O)cc1 | inactive: -30% | –
45 | CCOC(=O)c1ccccc1NC(=O)N1CCC(N2CCN(Cc3ccccc3)C(=O)C2=O)CC1 | inactive: -0.0383% | –
